In article PMC4336329 (PLoS ONE, 2015):
Among all 310,000 compounds or so, about 14,000 (4.5%) showed an effect of 50% or more. The effect is printed as a negative number. This is one part of the list.

target: human ether-à-go-go-related gene (hERG) potassium channel (human, UniProt Q12809); test: primary screen, population patch clamp on CHO cells stably expressing hERG
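Note: peak tail current of the secondary pulse compared with the same well before compound.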

Chain of human ether-à-go-go-related gene (hERG) potassium channel (Q12809 whole entry, looked up): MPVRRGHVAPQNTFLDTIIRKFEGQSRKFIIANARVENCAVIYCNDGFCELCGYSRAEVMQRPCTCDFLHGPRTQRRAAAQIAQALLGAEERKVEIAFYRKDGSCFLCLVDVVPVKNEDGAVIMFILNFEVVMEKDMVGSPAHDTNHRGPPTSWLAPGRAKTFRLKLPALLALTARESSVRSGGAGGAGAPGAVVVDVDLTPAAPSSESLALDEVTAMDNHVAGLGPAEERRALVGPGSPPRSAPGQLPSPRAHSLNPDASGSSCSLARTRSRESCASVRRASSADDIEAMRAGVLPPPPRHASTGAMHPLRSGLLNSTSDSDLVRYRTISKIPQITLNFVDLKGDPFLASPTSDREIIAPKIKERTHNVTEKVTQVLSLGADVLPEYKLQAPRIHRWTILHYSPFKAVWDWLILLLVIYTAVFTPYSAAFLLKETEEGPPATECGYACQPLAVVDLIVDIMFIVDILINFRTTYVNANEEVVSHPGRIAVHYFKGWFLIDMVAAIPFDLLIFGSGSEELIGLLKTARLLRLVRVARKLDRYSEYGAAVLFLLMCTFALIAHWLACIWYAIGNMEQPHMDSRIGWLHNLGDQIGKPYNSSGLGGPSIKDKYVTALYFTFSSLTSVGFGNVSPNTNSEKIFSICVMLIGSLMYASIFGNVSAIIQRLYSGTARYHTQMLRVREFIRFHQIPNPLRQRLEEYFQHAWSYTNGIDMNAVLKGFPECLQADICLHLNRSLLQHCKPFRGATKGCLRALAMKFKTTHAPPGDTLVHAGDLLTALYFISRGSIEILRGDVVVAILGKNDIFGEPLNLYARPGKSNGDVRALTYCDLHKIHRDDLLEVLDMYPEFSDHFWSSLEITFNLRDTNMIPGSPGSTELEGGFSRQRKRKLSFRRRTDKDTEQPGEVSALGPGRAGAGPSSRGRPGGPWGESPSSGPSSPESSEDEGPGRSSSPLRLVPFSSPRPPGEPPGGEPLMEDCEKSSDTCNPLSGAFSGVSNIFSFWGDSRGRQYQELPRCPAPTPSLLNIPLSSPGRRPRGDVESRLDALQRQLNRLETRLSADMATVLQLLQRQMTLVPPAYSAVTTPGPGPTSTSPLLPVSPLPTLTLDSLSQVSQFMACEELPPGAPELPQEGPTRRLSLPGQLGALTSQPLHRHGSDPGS

| SMILES | hERG current change (%, negative = inhibition) at 10uM |
| --- | --- |
| O=C(Nc1ccc(-c2cnco2)cc1)c1ccc(Cl)cc1 | 10.8% |
| CCOC(=O)c1c(-c2cccc([N+](=O)[O-])c2)csc1NC(=O)C1CCCCC1 | 22.9% |
| COc1cccc(NC(=O)C(=O)NCCC2CCCCN2S(=O)(=O)c2cccs2)c1 (centres unmarked) | -20.4% |
| CCOC(=O)C(NC(C)=O)C(=O)Nc1c(C)cccc1C (centres unmarked) | -2.82% |
| O=C(CN(Cc1ccccc1)C(=O)c1csnn1)NCCc1ccccc1 | -18.9% |
| CCOc1ccc2nc(C)cc(C(=O)O)c2c1 | -2.09% |
| Cl.N#C/C(=C/c1cc(Cl)c(O)c(Cl)c1)C(=O)N1CCCCC1 | 5.15% |
| CC1Cc2cc(S(=O)(=O)N3CCC(C(N)=O)CC3)ccc2N1C(=O)C1CC1 (centres unmarked) | 17.3% |
| CC(=O)Nc1ccc(NC(=O)C(C)OC(=O)c2c(NC(C)=O)sc(C)c2C)cc1 (centres unmarked) | 1.54% |
| COc1ccc(NC(=O)c2ccc(Cl)c(S(=O)(=O)NCC3CCCO3)c2)c(OC)c1 (centres unmarked) | -7.25% |
| O=C(Nc1nnc(S(=O)(=O)N2CCCCCC2)s1)c1ccccc1Cl | -4.58% |
| O=C(NCc1cccnc1)c1ccc(CS(=O)(=O)Cc2ccc(Cl)cc2)o1 | -7.95% |
| Nc1ccccc1Oc1c(F)c(F)c(Oc2ccccc2N)c(F)c1F | 17.8% |
| CCC(=O)N1N=C(c2c(O)n(CCc3ccccc3)c(=O)[nH]c2=O)CC1c1ccc(OC)c(OC)c1 (centres unmarked) | 28.1% |
| CCOC(=O)N1CCN(C(=O)c2ccc3c(c2)N=C(CC)c2cc(C)ccc2S3)CC1 | -3.5% |
| Cc1ccc(NC(=O)CN2CCOCC2)c(Br)c1 | -9.76% |
| CC(C)c1cc(CNC(=O)C2CCC(=O)N(CCc3ccc(Cl)cc3)C2)on1 (centres unmarked) | -68.1% |
| O=C(c1ccc(Cl)c(F)c1F)N1CCOCC1 | -1.87% |
| O=C(/C=C/c1ccccc1)OCC(=O)N1CCCC1 | 0.185% |
| CCN(CC)c1ccc(/C=N/c2sc3c(c2C#N)C2CCN3CC2)c(O)c1 | 30.1% |
| CCOc1cc(C2C3=C(CCCC3=O)OC3=C2C(=O)CCC3)cc([N+](=O)[O-])c1O | 1.98% |
| COc1ccc(N2CCN(C(=O)C(OC(C)=O)c3ccccc3)CC2)cc1 (centres unmarked) | -0.89% |

| SMILES | hERG current change (%, negative = inhibition) at 10uM |
| --- | --- |
| COc1ccc(-n2nccc2-c2nn(-c3cccc(OC)c3)c(=O)n(C)c2=O)cc1 | 11.7% |
| COc1cc2ncnc(Nc3ccc4c(c3)OCO4)c2cc1OC | 14.1% |
| CCOC(=O)c1ccc(COC(=O)CNC(=O)CNC(=O)Cc2ccccc2)cc1 | -57.2% |
| COc1cc(OC)cc(C(=O)N(CCCN2C(=O)c3cccc4cccc(c34)C2=O)c2cccc(OC)c2)c1 | 9.2% |
| COC(=O)c1ccc(-c2cc3onc(-c4ccccc4)c3c(=O)n2C)cc1 | 7.55% |
| Cc1ccc(/C=N/NC(=O)CNC(=O)c2cccs2)cc1 | 4.94% |
| CC(C)N(C(=O)Cn1cnc2c(cnn2-c2ccccc2Cl)c1=O)C(C)C | 9.03% |
| COC(=O)c1ccc(CO/N=C/c2cccc([N+](=O)[O-])c2)cc1 | 22.7% |
| O=C(C1CCN(S(=O)(=O)c2ccc(Br)s2)CC1)N1CCCCC1 | -24.5% |
| CC1CCCCN1CCNC(=O)CN1C(=O)CSc2ccc(S(=O)(=O)N3CCCCC3)cc21 (centres unmarked) | -17.6% |
| COc1cc(/C=N/NC(=Nc2ccc(C)cc2)c2nc3ccccc3s2)ccc1O | -28.1% |
| O=C(CCn1c(=O)oc2ccccc21)Nc1ccc(N2CCOCC2)cc1 | 23.8% |
| O=C(NCC1CCCO1)C(c1ccco1)N(Cc1ccc(F)cc1)C(=O)CN1C(=O)c2ccccc2S1(=O)=O (centres unmarked) | -7.48% |
| CSCC[C@H](N)C(=O)NCC1CCC(C(=O)N[C@@H](Cc2ccccc2)C(=O)O)CC1.Cl (some centres unmarked) | 1.22% |
| COc1ccc(C)cc1NC(=O)CCC(=O)Nc1nnc(C2CCCCC2)s1 | 20.9% |
| CCc1nnc(N/N=C/c2cc(C)c(C)cc2C)n1N | 15.1% |
| COc1ccnc(CSC(N)=Nc2ccccc2C(F)(F)F)c1 | -2.89% |
| CC(=O)N(C(C)=O)c1ncc2c([nH]c3ccccc32)c1C#N | 2.9% |
| Cc1ccc2c(c1)nnn2C1CCN(CC(=O)NCCc2ccccc2)CC1 | -50.4% |
| Cl.c1ccc(CN2CCNCC2)nc1 | 16.8% |
| O=C(Nc1nc2ccccc2s1)c1cccc(N2C(=O)CCC2=O)c1 | 4.28% |
| Cc1ccc(C(=O)NC(C)c2ccc(F)cc2)cc1 (centres unmarked) | 17.6% |

| SMILES | hERG current change (%, negative = inhibition) at 10uM |
| --- | --- |
| COc1ccc(-n2nc(C(N)=O)nc2-c2ccccc2)cc1 | -12.1% |
| COc1ccc(NS(=O)(=O)c2ccc(Cl)c(N)c2)cc1Br | -0.937% |
| O=C1COc2ccc(N3C(=O)C=CC3=O)cc2N1 | -16.5% |
| O=C1CCCN1CCCNc1ccc2nnc(CCC(=O)N3CCN(c4ccc(F)cc4)CC3)n2n1 | -0.74% |
| CCOC(=O)c1cnc(SCC(=O)NCc2ccco2)nc1N | -14.5% |
| Brc1cccc(OCCN2CCCCC2)c1.O=C(O)C(=O)O | -21.3% |
| Cc1ccc(S(=O)(=O)Nc2cccc(N(C)S(C)(=O)=O)c2)cc1[N+](=O)[O-] | 5.48% |
| C/C(=N\Nc1ccc([N+](=O)[O-])cc1[N+](=O)[O-])C(C)(C)C(C(=O)O)C(=O)O | 5.86% |
| O=C(Nc1cccc(Cl)c1Cl)C1CCCO1 (centres unmarked) | 18.5% |
| Cc1cccc(OCC(=O)OC(C)C(=O)Nc2ccc(Cl)cn2)c1 (centres unmarked) | -1.87% |
| NC(=O)c1nsc(C(=O)N(c2cccc(F)c2)C(C(=O)NCC2CCCO2)c2ccc3ncccc3c2)c1N (centres unmarked) | -23.3% |
| CC(Sc1nncn1C)C(=O)Nc1cc(C(F)(F)F)ccc1N1CCOCC1 (centres unmarked) | -15.1% |
| Cc1ccc2c(c1)C1C3CCC(C3)C1S(=O)N2 (centres unmarked) | 23.1% |
| Cc1ccc(C)c2c1cc(C)c1nnc(SCC(=O)c3cccs3)n12 | -61.5% |
| COC(=O)c1cc(S(=O)(=O)N2CCC(C)CC2)ccc1F | -18% |
| Cc1cc(OCC(=O)NNC(=O)c2cccc(F)c2)ccc1Cl | 7.87% |
| Cc1ccc(-c2nc3sc(C#N)c(N)n3c(=O)c2C#N)cc1 | 29.2% |
| COC1=C/C(=C/c2c(N)n3c(nc2=O)sc2cc(S(C)(=O)=O)ccc23)C=CC1=O | 28.2% |
| Cc1ccccc1CN1CCC(N2CCC(C(=O)NCC3CCCO3)CC2)CC1 (centres unmarked) | -1.07% |
| CCOCCOC(=O)NCCCCCCNC(=O)OCCOCC | 13.2% |
| C=CCOc1ccc(/C=C/C(=O)OCC(=O)NCC2CCCCC2)cc1 | -5.74% |
| CCN(c1ccc(OC)cc1)S(=O)(=O)c1nnc(NC(=O)c2ccccc2Cl)s1 | 15.5% |

| SMILES | hERG current change (%, negative = inhibition) at 10uM |
| --- | --- |
| Cc1ccc(NC(=O)CN2C(=O)CCS(=O)(=O)c3ccccc32)cc1Cl | 18.6% |
| CCn1c(SCC(=O)c2ccc(NC(C)=O)c(OC)c2)nnc1-c1ccc(NS(C)(=O)=O)cc1 | 15.8% |
| CC(=O)c1ccc(NC(=O)C2C3C=CC(C3=C(c3ccccc3)c3ccccc3)C2C(=O)O)cc1 (centres unmarked) | 2.53% |
| CCOP(=O)(OCC)c1ccc(O)cc1 | 13.3% |
| CC1CCC(NC(=O)c2nn(C)c3c2CS(=O)(=O)c2ccccc2-3)CC1 (centres unmarked) | -21.1% |
| COc1cccc(NC(=O)C2=COCCO2)c1 | 3.72% |
| COc1ccccc1N1C(=O)c2ccccc2NC1c1ccncc1 (centres unmarked) | -13% |
| CC1CCCC(C)N1C(=O)COC(=O)c1cc(Br)ccc1Cl (centres unmarked) | 14.8% |
| c1ccc(CSc2nc3ncncc3[nH]2)cc1 | 2.94% |
| O=C(CNC(=O)c1ccc(S(=O)(=O)N2CCCC2)cc1)N/N=C/c1ccc(Cl)cc1Cl | -3.34% |
| Cc1ccc2c(c1)cc(CN(Cc1cccs1)C(=O)c1ccco1)c1nnnn12 | -16.8% |
| COc1ccc(-c2cc(C(F)(F)F)nc(N3CCOCC3)n2)cc1OC | 6.92% |
| CCN1CCN(Cc2ccc(NC(=O)Nc3ccc(OC)cc3)cc2)CC1 | -7.9% |
| O=C(Nc1cc(C(F)(F)F)ccc1N1CCOCC1)c1cncc(Br)c1 | -18.4% |
| CCOc1ccccc1N1CCN(C(=O)C(Sc2ccccc2)c2ccccc2)CC1 (centres unmarked) | 0.257% |
| O=C(O)CC/C(=N\NC(=O)c1ccccc1)c1cccs1 | 8.65% |
| COc1ccc(-n2c(CCc3ccccc3)nnc2SCC(=O)c2ccccc2)cc1 | -11.3% |
| O=C(Nc1ccc(Cl)cc1)N1CCSc2ccccc21 | -4.16% |
| Cc1cc(NC(=O)CCC(=O)N(CC(=O)NCC2CCCO2)c2ccc(C)c(C)c2)no1 (centres unmarked) | 8.68% |
| CCC(Sc1nc2cc(OC)c(OC)cc2c(=O)n1Cc1ccco1)C(=O)NCCOC (centres unmarked) | -28.2% |
